For 61 compounds, relative growth results are on record in the supplement of paper PMC9446081.

The campaign covered roughly 39,000 compounds. About 220 (0.56%) showed activity. Some of the results follow.
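Also: static incubation at 37 °C against the wild-type strain, values averaged over two biological replicates.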

This assay concerns Escherichia coli K-12 BW25113. Nature of the assay: relative growth (OD600 normalised to plate interquartile mean) (fraction); higher = less growth inhibition, active = 0.2 or less. The conditions noted are these: 50 µM; LB; incubation time: overnight (16-24 h).
For `C[C@@H]1CN([C@H](C)CO)C(=O)CCCn2nncc2CO[C@H]1CN(C)S(=O)(=O)c1ccc(-c2ccccc2)cc1`, the relative growth is inactive: 0.979.
For `COc1ccc(S(=O)(=O)Nc2ccc3c(c2)CC(=O)N([C@H](C)CO)C[C@@H](C)[C@@H](CN(C)Cc2ccc(-c4ccccc4)cc2)O3)cc1` the value was inactive: 1.02; for `Cc1cc(C)n(CCC(=O)O)n1`, inactive: 1; for `CC(C)NC(=O)N(C)C[C@@H]1Oc2ccc(NC(=O)NC3CCCCC3)cc2C(=O)N([C@@H](C)CO)C[C@H]1C`, inactive: 1.01.
Regarding `CCOC(=O)[C@H]1C/C=C/C[C@H](C(=O)OCC)C(=O)O[C@H]2[C@@H](OC)O[C@H](COC(=O)NCCCCCC(=O)NO)[C@@H](OC(=O)Nc3ccccc3)[C@@H]2OC1=O`, the relative growth is inactive: 0.981.
For `C[C@H]1CCCCO[C@@H](CN(C)Cc2ccccc2)[C@@H](C)CN([C@@H](C)CO)C(=O)c2cc(NS(=O)(=O)c3ccccc3)ccc2O1`, the relative growth was inactive: 0.977.
Take `O=C(O)CCc1nc(-c2ccccc2)c(-c2ccccc2)o1`: the relative growth was inactive: 1.16.
The value for `C[C@H](CO)N1C[C@H](C)[C@H](CN(C)C(=O)Nc2ccccc2)Oc2cc(C#CC3(O)CCCC3)ccc2S1(=O)=O` was inactive: 1.04; that for `C[C@H](CO)N1C[C@H](C)[C@H](CN(C)S(=O)(=O)c2ccc(Cl)cc2)Oc2c(NC(=O)Nc3ccc(C(F)(F)F)cc3)cccc2C1=O` was inactive: 1.01.
On to `C[C@@H]1CN([C@@H](C)CO)C(=O)CCCn2cc(nn2)CO[C@@H]1CN(C)S(=O)(=O)c1ccc2c(c1)OCCCO2`, for which the relative growth was inactive: 1.05.
The value for `C[C@H](CO)N1C[C@H](C)[C@@H](CN(C)Cc2ccc3c(c2)OCO3)Oc2ccc(NS(C)(=O)=O)cc2C1=O` was inactive: 1.01; that for `C[C@@H]1CN([C@H](C)CO)C(=O)c2cc(NC(=O)Nc3ccc(C(F)(F)F)cc3)ccc2O[C@@H](C)CCCCO[C@H]1CN(C)C(=O)c1ccccc1` was inactive: 1.01; that for `Cc1noc(C)c1NC(=O)Nc1ccc2c(c1)C(=O)N([C@H](C)CO)C[C@H](C)[C@H](CN(C)C(=O)NC(C)C)O2` was inactive: 1.
For `C[C@H](CO)N1C[C@H](C)[C@H](CN(C)S(C)(=O)=O)Oc2cc(C#CCN(C)C)ccc2S1(=O)=O` the value was inactive: 0.997; for `C[C@@H]1CN([C@@H](C)CO)C(=O)c2cc(NC(=O)C3CCCCC3)ccc2O[C@@H]1CN(C)Cc1ccc(-c2ccccc2)cc1`, inactive: 1.01.
The value for `C[C@@H]1CCCCO[C@@H](CN(C)Cc2ccccc2)[C@@H](C)CN([C@H](C)CO)C(=O)c2cc(NC(=O)CCC(F)(F)F)ccc2O1` was inactive: 0.966; that for `Cn1nccc1N` was inactive: 0.99.
For `Clc1ccc2c(c1)C(N1CCNCC1)=Nc1ccccc1O2`, the relative growth was inactive: 0.793.
The value for `CO[C@H]1CN(C)C(=O)c2cc(NS(=O)(=O)CC(F)(F)F)ccc2OC[C@@H](C)N(C(=O)NC(C)C)C[C@H]1C` was inactive: 1; that for `C[C@H](CO)N1C[C@H](C)[C@@H](CN(C)S(C)(=O)=O)Oc2cc(C#Cc3ccccc3)ccc2S1(=O)=O` was inactive: 1.01.
For `C[C@H](CO)N1C[C@H](C)[C@H](CN(C)Cc2ccc(-c3ccccc3)cc2)OCc2ccccc2-c2ccccc2C1=O` the value was inactive: 0.999; for `C[C@@H]1CCCCO[C@@H](CN(C)Cc2ccc(Cl)c(Cl)c2)[C@H](C)CN([C@H](C)CO)C(=O)c2cc(NS(=O)(=O)c3cccs3)ccc2O1`, inactive: 0.983; for `C[C@H](CO)N1C[C@H](C)[C@H](CN(C)S(C)(=O)=O)Oc2ccc(NC(=O)Nc3ccc4c(c3)OCO4)cc2CC1=O`, inactive: 0.97.
The value for `O=C1c2ccccc2C(=O)C1c1ccccc1` was inactive: 0.94; that for `C[C@@H]1CN([C@@H](C)CO)C(=O)c2cc(NC(=O)CCCN(C)C)ccc2O[C@@H]1CN(C)Cc1ccncc1` was inactive: 0.978; that for `Cc1noc(C)c1C(=O)OCC(=O)NC1CC1` was inactive: 0.94.
Take `COc1ccc(NC(=O)N(C)C[C@@H]2Oc3ncc(C#CC(C)(C)O)cc3C(=O)N([C@H](C)CO)C[C@@H]2C)cc1`: the relative growth is inactive: 0.991.
The value for `OCCN1CC(O)C(O)C(O)C1CO` (stereo unspecified) was inactive: 1.03; that for `CCN(CC)CCNC(=O)c1cc(Cl)c(N)cc1OC.Cl` was inactive: 1.15.
For `COc1ccc(NC(=O)N(C)C[C@H]2OCCCC[C@H](C)Oc3ccc(NC(=O)NC4CCCCC4)cc3C(=O)N([C@@H](C)CO)C[C@H]2C)cc1` the value was inactive: 1.01.
The value for `C[C@H](CO)N1C[C@H](C)[C@H](CN(C)Cc2ccc3c(c2)OCO3)Oc2c(NC(=O)c3cnccn3)cccc2C1=O` was inactive: 1.02.
On to `C[C@@H]1CCCCO[C@@H](CN(C)C(=O)c2ccncc2)[C@H](C)CN([C@@H](C)CO)C(=O)c2cc(NS(=O)(=O)c3cn(C)cn3)ccc2O1`, for which the relative growth was inactive: 0.996.
For `COc1ccc(NC(=O)Nc2ccc3c(c2)C(=O)N([C@@H](C)CO)C[C@H](C)[C@H](CN(C)S(=O)(=O)c2ccc(Cl)cc2)OCCCC[C@@H](C)O3)cc1` the value was inactive: 1.03; for `CN(C)CCCNC(=O)C[C@H]1CC[C@H]2[C@H](COc3ccc(NC(=O)c4ccc5c(c4)OCO5)cc3C(=O)N2C)O1`, inactive: 0.989.
For `Cc1noc(C)c1S(=O)(=O)Nc1ccc2c(c1)C(=O)N([C@@H](C)CO)C[C@H](C)[C@@H](CN(C)S(=O)(=O)c1ccc(F)cc1)O2` the value was inactive: 1.02; for `NC(=O)CNC(=O)c1cccc(Cl)c1`, inactive: 1.
Take `C[C@@H]1CN([C@@H](C)CO)C(=O)c2cc(NC(=O)CCCN(C)C)ccc2O[C@@H](C)CCCCO[C@@H]1CN(C)CC1CCCCC1`: the relative growth is inactive: 0.992.
Consider `C[C@@H]1CN([C@@H](C)CO)C(=O)CCCn2nncc2CO[C@H]1CN(C)C(=O)Nc1ccc(N2CCCCC2)cc1`, for which the relative growth is inactive: 1.03.
The value for `CN1N=C(C(N)=O)CCC1=O` was inactive: 1.01; that for `C[C@@H]1CCCCO[C@H](CN(C)S(=O)(=O)c2ccc(Cl)cc2)[C@@H](C)CN([C@H](C)CO)C(=O)c2cc(NC(=O)C3CCCCC3)ccc2O1` was inactive: 0.989; that for `C[C@@H]1CN([C@@H](C)CO)C(=O)c2cccc(NC(=O)c3nc4ccccc4s3)c2O[C@H]1CN(C)Cc1ccc(Cl)c(Cl)c1` was inactive: 1.02.
The value for `CC(C)(C)[C@H]1C=C(C(=O)N2CCN(Cc3ccccc3)CC2)O[C@@H](OCc2ccc(COC(=O)NCCCCCC(=O)NO)cc2)C1` was inactive: 0.979.
The value for `COc1ccc([Si](C)(C)[C@@H]2[C@@H](CC(=O)N3Cc4ccccc4C[C@H]3CO)O[C@]3(C(=O)N(Cc4ccc(I)cc4)c4ccccc43)[C@H]2C)cc1` was inactive: 1.02.
In the case of `C[C@H](CO)N1C[C@H](C)[C@@H](CN(C)C(=O)Nc2ccc(F)cc2)Oc2ccc(NC(=O)Nc3ccc(C(F)(F)F)cc3)cc2CC1=O`, the relative growth was inactive: 1.01.
The value for `C[C@H](CO)N1C[C@H](C)[C@@H](CN(C)CC2CCCCC2)Oc2c(NC(=O)CCCCCC(=O)Nc3ccccc3N)cccc2C1=O` was inactive: 0.999; that for `O=C1N[C@@H](c2ccccc2)COCc2cn(nn2)CC[C@H](Cc2ccc(C(F)(F)F)cc2)C(=O)N[C@@H](c2ccccc2)COCc2cn(nn2)CC[C@@H]1Cc1ccc(C(F)(F)F)cc1` was inactive: 1.02.
For the compound `COCC(=O)Nc1ccc2c(c1)OC[C@@H](C)N(C(=O)Cc1cccnc1)C[C@H](C)[C@@H](OC)CN(C)C2=O`, the relative growth was inactive: 0.985.
Regarding `C[C@H]1CCCCO[C@@H](CN(C)Cc2ccncc2)[C@@H](C)CN([C@@H](C)CO)C(=O)c2cc(NC(=O)Nc3ccc4c(c3)OCO4)ccc2O1`, the relative growth is inactive: 0.999.
Consider `Cc1noc(C)c1S(=O)(=O)Nc1ccc2c(c1)C(=O)N([C@H](C)CO)C[C@H](C)[C@H](CN(C)C(=O)Nc1ccc(C(F)(F)F)cc1)OCCCC[C@@H](C)O2`, for which the relative growth was inactive: 0.995.
For `Cc1noc(C)c1NC(=O)Nc1ccc2c(c1)C(=O)N([C@@H](C)CO)C[C@H](C)[C@@H](CN(C)C(=O)Nc1ccc(F)cc1)OCCCC[C@@H](C)O2`, the relative growth was inactive: 0.993.
In the case of `C[C@H](CO)N1C[C@H](C)[C@@H](CN(C)S(=O)(=O)c2ccccc2)Oc2ccc(NS(=O)(=O)c3ccccc3)cc2CC1=O`, the relative growth is inactive: 1.01.
The value for `COc1ccc(S(=O)(=O)Nc2ccc3c(c2)CC(=O)N([C@H](C)CO)C[C@@H](C)[C@@H](CN(C)S(C)(=O)=O)O3)cc1` was inactive: 0.904; that for `CC(=CC(=O)OCCCCCCCCC(=O)O)CC1OCC(CC2OC2C(C)C(C)O)C(O)C1O` (stereo unspecified) was inactive: 0.526.
For `C[C@@H]1CN([C@@H](C)CO)C(=O)Cc2cc(NC(=O)CCCCCC(=O)Nc3ccccc3N)ccc2O[C@H]1CN(C)Cc1ccc(C(F)(F)F)cc1` the value was inactive: 1.02; for `CC(C)(Oc1ccc(CCNC(=O)c2ccc(Cl)cc2)cc1)C(=O)O`, inactive: 1.02; for `CN1CCN(C(=O)[C@H]2[C@H](CO)[C@H]3Cn4c(cccc4=O)[C@@H]2N3S(=O)(=O)c2ccccc2F)CC1`, inactive: 1.02.
The value for `COC(=O)C[C@@H]1CC[C@@H]2[C@H](COC[C@@H](O)CN2S(=O)(=O)c2cn(C)cn2)O1` was inactive: 0.993; that for `NCCCCC(=O)O` was inactive: 0.976.
As to `CC(=O)N(C)C[C@@H]1Oc2ncc(C#CC(C)(C)O)cc2C(=O)N([C@@H](C)CO)C[C@H]1C`, the relative growth was inactive: 1.01.
As for `C[C@@H]1CCCCO[C@@H](CN(C)C(=O)CCC(F)(F)F)[C@H](C)CN([C@H](C)CO)C(=O)c2cc(NC(=O)c3ccccc3)ccc2O1`, the relative growth is inactive: 0.987.
For `Cc1ccc(S(=O)(=O)N(C)C[C@@H]2OCCCC[C@@H](C)Oc3ccc(NC(=O)Nc4c(C)noc4C)cc3C(=O)N([C@@H](C)CO)C[C@H]2C)cc1` the value was inactive: 0.978.
